Measurements reported in article PMC4336329 (PLoS ONE, 2015).
The whole screen tested about 310,000 compounds, of which about 14,000 (4.5%) showed an effect of 50% or more. The effect is printed as a negative number. The list shows a part of the results.

biological target: human ether-à-go-go-related gene (hERG) potassium channel (human, UniProt Q12809); experiment: primary screen, population patch clamp on CHO cells stably expressing hERG
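Note: peak tail current of the secondary pulse compared with the same well before compound.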

human ether-à-go-go-related gene (hERG) potassium channel, sequence (Q12809 whole entry, looked up): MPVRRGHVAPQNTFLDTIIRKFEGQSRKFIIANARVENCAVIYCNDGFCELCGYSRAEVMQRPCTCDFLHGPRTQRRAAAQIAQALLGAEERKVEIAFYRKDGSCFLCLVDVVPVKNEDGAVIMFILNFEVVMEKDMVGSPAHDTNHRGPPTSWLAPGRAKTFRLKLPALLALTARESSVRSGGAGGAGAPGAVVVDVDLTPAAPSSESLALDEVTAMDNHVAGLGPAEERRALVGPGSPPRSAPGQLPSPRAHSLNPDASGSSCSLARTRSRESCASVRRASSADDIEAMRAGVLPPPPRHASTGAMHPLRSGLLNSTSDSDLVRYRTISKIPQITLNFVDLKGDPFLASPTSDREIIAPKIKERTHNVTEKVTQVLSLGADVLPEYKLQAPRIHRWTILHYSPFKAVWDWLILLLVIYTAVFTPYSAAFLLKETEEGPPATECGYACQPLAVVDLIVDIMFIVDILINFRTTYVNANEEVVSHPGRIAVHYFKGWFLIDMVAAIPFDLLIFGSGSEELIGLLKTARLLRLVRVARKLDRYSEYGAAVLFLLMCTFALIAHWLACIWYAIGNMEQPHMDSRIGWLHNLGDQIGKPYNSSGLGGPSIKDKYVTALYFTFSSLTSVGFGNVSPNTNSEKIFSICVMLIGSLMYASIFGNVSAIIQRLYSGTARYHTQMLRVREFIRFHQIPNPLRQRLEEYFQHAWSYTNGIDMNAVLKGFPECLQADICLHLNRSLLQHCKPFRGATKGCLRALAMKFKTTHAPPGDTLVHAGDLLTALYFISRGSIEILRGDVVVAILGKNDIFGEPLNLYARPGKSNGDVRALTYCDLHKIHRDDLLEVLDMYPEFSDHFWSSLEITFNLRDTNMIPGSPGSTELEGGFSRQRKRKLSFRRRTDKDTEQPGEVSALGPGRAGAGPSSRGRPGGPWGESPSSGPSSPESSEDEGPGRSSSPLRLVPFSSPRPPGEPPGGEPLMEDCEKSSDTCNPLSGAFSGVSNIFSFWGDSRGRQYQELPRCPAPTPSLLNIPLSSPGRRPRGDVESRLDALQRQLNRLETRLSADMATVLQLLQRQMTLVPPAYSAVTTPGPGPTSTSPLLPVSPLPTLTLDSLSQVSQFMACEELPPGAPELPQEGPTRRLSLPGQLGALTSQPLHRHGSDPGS

SMILES	hERG current change (%, negative = inhibition) at 10uM
O.O=c1ccc2cc(O[C@@H]3O[C@@H](CO)[C@H](O)[C@@H](O)[C@@H]3O)c(O)cc2o1	31%
COc1ccc(S(=O)(=O)N2CCCCCC2)cc1C(=O)N(C)Cc1ccc(Cl)cc1Cl	-23.1%
COc1cc(/C=C/C(=O)O)cc(Br)c1O	23.4%
CCN(CCCCN1C(=O)c2ccccc2C1=O)c1ccc2c(c1)C(=O)N(C)C2=O	-14.6%
Cc1cc(Cl)ccc1NC(=S)NCc1ccco1	8.32%
COc1ccc(/C(O)=C2/C(=O)C(=O)N(CCCN(C)C)C2c2cccc(Cl)c2)cc1OC (stereo not drawn)	12.9%
C[C@H](NS(=O)(=O)c1ccc2c(c1)OCCCO2)C(=O)N1CCN(c2ccc(F)cc2)CC1	-34.8%
Cc1cccc(NS(=O)(=O)c2ccc(C)c(C(=O)OCC(=O)Nc3cc(C)on3)c2)c1	10.6%
CC(=O)c1cc(C(C)=O)c(C)[n+](C)c1C.[O-][Cl+3]([O-])([O-])[O-]	18%
Cn1c(=O)c(C(=O)CCl)c(N)n(CC2CC2)c1=O	0.697%
O=C(Nc1scc(-c2ccc(F)cc2)c1C(=O)O)c1ccco1	0.298%
Cc1ccc(OCCCCN2CCCC(C)C2)c([N+](=O)[O-])c1.O=C(O)C(=O)O (stereo not drawn)	-69%
COc1ccccc1-c1nnc(SCC(=O)NC2CCS(=O)(=O)C2)n1CCc1ccccc1 (stereo not drawn)	8.05%
Cn1nnnc1SCC(=O)Nc1ccccc1C(=O)NCc1ccccc1	7.79%
CCOC(=O)CN(C(=O)COc1nc(C)cc(C)c1C#N)c1ccc(Cl)cc1	-34.3%
COC(=O)C1=C(C)Nc2c(c(=O)n(C)c(=O)n2C)C1c1ccc(C)cc1 (stereo not drawn)	20.1%
COc1ccc(CCN2C(=O)CC(Nc3ccc(N4CCOCC4)cc3)C2=O)cc1OC (stereo not drawn)	2.07%
CCNCCOC(c1ccccc1)c1ccccc1.Cl	-31.8%
COC(=O)c1ccc(Cl)c(NC(=O)Cc2ccccc2[N+](=O)[O-])c1	12.8%
COc1ccc2[nH]c3c(c2c1)CCN1C(=O)N([C@@H](C)C(=O)NCc2ccc(F)cc2)C(=O)[C@]31C	12.7%
CC(C)Oc1cccc(C(=O)C2CCCN(C3CCOCC3)C2)c1 (stereo not drawn)	-10.5%

SMILES	hERG current change (%, negative = inhibition) at 10uM
CCC(CC)C(=O)c1c[nH]c(C(=O)N2CCN(c3ccccc3F)CC2)c1	25.2%
N/C(=N\OC(=O)CCC1CCCC1)c1cccc([N+](=O)[O-])c1	-70.4%
COc1ccccc1C(=O)Nc1nnc(SCC(=O)NCC2CCCO2)s1 (stereo not drawn)	12.9%
N#Cc1ccc(CSc2nnc(-c3ccccn3)n2-c2ccccc2)cc1	-42.1%
O=C(NCCCn1ccnc1)c1cn(Cc2ccc(F)cc2)nn1	-9.7%
Cc1cccc(N2CCN(C(=O)c3cn(C)c(=O)c4c3c3ccccc3n4C)CC2)c1C	5.98%
Cc1ccc(Oc2ccc(OCC(=O)NC(CC(C)C)C(=O)O)cc2)cc1 (stereo not drawn)	6.77%
COc1ccc(C(=O)NC2CCCCC2)cc1OC1CCN(C(C)C)CC1	-69.7%
CCc1ccccc1N1CC23C=CC(O2)C(C(=O)OCC(C)C)C3C1=O (stereo not drawn)	-12.9%
COc1ccc(C)cc1NC(=O)C1CC(=O)N(CCc2ccccc2)C1 (stereo not drawn)	13%
N#Cc1c(/N=C/c2cccnc2)sc2c1CCCC2	-15%
O=C(Nc1cccc2ncccc12)c1cccc(Br)c1	-7.12%
Cc1ccc2occ(C3NC(C(=O)O)CS3)c(=O)c2c1 (stereo not drawn)	13.3%
O=C(Nc1ncc([N+](=O)[O-])s1)C1CCN(S(=O)(=O)c2cnc[nH]2)CC1	14.4%
CC(C)(Cc1ccccc1)NC(=O)C(=O)c1cn(CC(=O)N2CCOCC2)c2ccccc12	-7%
CSc1ccc(/C=C2\CCn3c2nc2cc(C(=O)O)ccc2c3=O)cc1	20.4%
[O-]/[N+](=C\c1ccccc1)c1ccc(Br)cc1	-0.595%
Cc1ccc(C(=O)Nc2cccc(C(F)(F)F)c2)cc1Nc1cnccn1	-38.4%
COc1cc(-c2nc3ccccn3c2/N=C/c2ccc(F)cc2)ccc1O	1.09%
CCOC(=O)c1ccc(CNC(=O)c2cc(C(C)(C)C)oc2C)o1	-10.2%
O=C(NC1CC1)C1=C[C@@H](c2ccc3c(c2)OCO3)C[C@@H](OCc2ccc(CO)cc2)O1	-3.36%

SMILES	hERG current change (%, negative = inhibition) at 10uM
COCc1cc(C)n(CC(=O)Nc2ccc(N3CCOCC3)c(Cl)c2)c(=O)c1C#N	-4.71%
CCn1c(SC(C)C(=O)NC2CCCC2)nc2cc(S(N)(=O)=O)ccc21 (stereo not drawn)	2.78%
CC1=C(C(N)=O)C(c2ccc(Cl)c(Cl)c2)n2ncnc2N1 (stereo not drawn)	18.8%
O=C(Cn1c(=O)c2c(ncn2Cc2ccccc2)n(Cc2ccccc2)c1=O)N1CCCC1	-33.4%
Nc1nc(Nc2ccc(Cl)cc2)nc(NCc2ccco2)c1[N+](=O)[O-]	-19.3%
CCOc1ccc(CN(C)C(=O)Cc2c[nH]c3ccccc23)cc1	12%
Cc1cc(Nc2ccc(Cl)cc2)n(-c2ccccc2)n1	2.76%
O=C(c1ccccc1[N+](=O)[O-])N(CCc1ccccc1)Cc1ccccc1	3.89%
O=C(COC(=O)c1ccc([N+](=O)[O-])cc1Cl)NCc1ccco1	-3.16%
COc1ccc(C(CC(=O)O)NC(=O)COc2ccccc2)cc1OC (stereo not drawn)	16.7%
c1ccc2oc(NC3=NCN(CC4CCCO4)CN3)nc2c1 (stereo not drawn)	0.528%
C=CCc1cc(C=O)cc(OC)c1OCc1ccc(C(=O)O)cc1	4.12%
Cn1cccc1C(=O)c1cccc([N+](=O)[O-])c1	-52.9%
COc1ccc(CNC(=O)CN(c2ccc(OC)c(Cl)c2)S(=O)(=O)c2ccc(C)cc2)cc1	10.4%
CCOC(=O)N1CCN(Cc2nc3cc(NC(=O)CC(C)C)ccc3n2C)CC1	9.03%
CC(C)c1ccc(OCC(=O)NC2CCCC2)cc1	10.6%
O=C(CSc1n[nH]c(-c2ccncc2)n1)Nc1ccccc1C(F)(F)F	13.4%
Cc1ncoc1C(=O)NCc1ccccc1Cl	-1.99%
Cc1sc2nc(CN3CCOCC3)nc(NS(=O)(=O)c3cc(Cl)ccc3Cl)c2c1C	-9.13%
CCn1c(COc2ccc(C(C)C)cc2)nnc1SCC(=O)Nc1nccs1	-7.75%
Cc1ccc2c(C)c(C(=O)N(Cc3ccccc3)C3CCS(=O)(=O)C3)oc2c1 (stereo not drawn)	5.01%

SMILES	hERG current change (%, negative = inhibition) at 10uM
S=C(NCc1ccco1)Nc1ccc(Cl)cn1	-4.57%
Cc1nnc(SCC(=O)Nc2cc(S(=O)(=O)N3CCCC3)ccc2Cl)n1C1CC1	-26.6%
CC(C)(C)c1ccc(C(=O)NC2CCN(Cc3ccccc3)CC2)cc1	-65.3%
Cc1ccccc1-c1nc(CN2CCC(C(=O)NCCN3CCOCC3)CC2)c(C)o1	-11.4%
Cc1cccc(-n2c(CNC(=O)c3ccc(S(=O)(=O)N(C)C)cc3)nnc2SCC(=O)Nc2ccc(F)cc2)c1	-17.4%
Cc1ccc(N(C(C)C(=O)N2CCOCC2)S(C)(=O)=O)cc1C (stereo not drawn)	-2.09%
COc1cccc(-c2nc(CS(=O)(=O)CC(=O)Nc3c(C)cccc3C)c(C)o2)c1	13.8%
CCN1C(=O)[C@H]2[C@@H](c3ccc(-c4ccc(OC)cc4)cc3)N[C@@](Cc3ccccc3)(C(=O)OC)[C@H]2C1=O.O=C(O)C(F)(F)F	3.09%
O=C(NCCC1=CCCCC1)C1CCN(S(=O)(=O)c2cccc(C(F)(F)F)c2)CC1	-11.3%
O=C(CSc1ccc2c(c1)OCCO2)NCCc1ccc(Cl)cc1Cl	-8.94%
Cc1cc(NC(=O)CCC(=O)N(CC(=O)NC2CCCC2)Cc2cccs2)no1	16.1%
Cc1ccc2c(c1)-c1c(cnn1CC(=O)Nc1ccccc1N1CCN(C)CC1)CO2	-44.7%
CCC(NS(=O)(=O)c1ccc(C)cc1)C(=O)N1CCC2(O)CCCCC2C1 (stereo not drawn)	9.7%
COc1ccccc1OCCOc1ccccc1/C=N/n1cnnc1	6.14%
O=C(N/C(=C/c1ccc(Br)cc1)C(=O)N1CCOCC1)c1ccco1	-24.1%
Cc1cc(C)n2nc(C(=O)N(C)c3c(N)n(Cc4ccccc4)c(=O)[nH]c3=O)nc2n1	13.4%
NC(=O)/C(=C/c1ccco1)C(N)=S	25.2%
COC(=O)c1c(NC(=O)c2ccc(OC(C)C)cc2)sc2c1CC(C)(C)NC2(C)C	-4.04%
Cc1ccccc1N/C(=N/S(=O)(=O)c1ccccc1)c1ccc(F)cc1	-5.7%
CCN1CCN(c2nc3sc4c(c3c3ncnn23)CC(C)CC4)CC1 (stereo not drawn)	-31.5%
CCOc1ccc(CCNS(=O)(=O)c2cn(C)cn2)cc1OCC	20.6%
